Reference: PubChem BioAssay (NCATS)
This list was built around the results that the source calls inconclusive (neither active nor inactive); the mix of calls is not that of the screen. For part of these data: Potencies beside an inconclusive call are fits to weak or partial responses and may not hold up. Calls of active or inactive are those of the source. Unless noted, calls follow the shape of the dose curve; as a rule, active = well fitted curve in either direction with a large enough effect (not every such curve was filed as active); inconclusive = small, poorly fitted or top-dose-only effect, or another doubt; inactive = flat fitted curve, though single readings scatter.

system: not listed separately; test: AP1 Signaling Pathway (AID 357); details: ME-180 (cervical carcinoma) AP-1-bla reporter, EGF-induced, beta-lactamase ratio, 5 h; at 17.2 µM (top of the series) unless noted;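 also: ME-180 reporter cells stimulated with EGF at its EC50 level; top concentration of the series differs between compounds; % is scaled to controls: 0 for no effect and ±100 for the full control effect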
Procedure, shortened: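 Cells are seeded overnight, exposed to compound titrations and an EC50 level of EGF for 5 hours at 37 °C, then loaded with CCF4 dye for 2.5 hours. Beta-lactamase activity under the AP-1 element is read as a blue/green ratio.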

| Compound | activity change, negative = inhibition |
| --- | --- |
| CN1CCN(c2ncc3nc(-c4cccs4)c(=O)n(CCC#N)c3n2)CC1 | inconclusive: 45.9% [activator] [at 7.69 µM] |
| CCNc1ncc2nc(-c3ccc(Cl)cc3)c(=O)n(Cc3cccs3)c2n1 | inconclusive: 43.8% [activator] [at 7.69 µM] |
| CN(C)C(=O)c1ccc(-c2ccc3ncnc(N4CCNCC4)c3c2)cc1 | inactive: -26.4% [at 7.69 µM] |
| COc1ccccc1-c1nc(NCc2cccs2)c2ccccc2n1 | inconclusive: 61.6% [activator] [at 7.69 µM] |
| COc1ccccc1-c1cc(Nc2ccc(F)cc2)ncn1 | inconclusive: -42.4% [inhibitor] [at 7.69 µM] |
| CN(C)C(=O)c1ccc(-c2ccc3ncnc(Nc4ccccc4)c3c2)cc1 | inconclusive: -107% [inhibitor] [at 7.69 µM] |
| COc1ccc2[nH]cc(CCNc3ncncc3-c3ccc(C(=O)N(C)C)cc3)c2c1 | inactive: -13.2% [at 7.69 µM] |
| COc1ccc(-c2nc3cnc(Nc4cccc(OC)c4)nc3n(C)c2=O)cc1 | inactive: -11.9% [at 7.69 µM] |
| CC(=O)NCCNc1nc(-c2c(C)noc2C)nc2ccccc12 | inactive: 5.25% [at 7.69 µM] |
| Clc1ccccc1-c1nc(NCCN2CCOCC2)c2ccccc2n1 | inactive: 16% [at 7.69 µM] |
| Cn1cc(-c2nc3cncnc3n(Cc3ccccc3Cl)c2=O)c2ccccc21 | inconclusive: 41.5% [activator] [at 7.69 µM] |
| COc1ccc(-n2c(=O)cnc3cnc(N4CCN(C)CC4)nc32)cc1 | inactive: -6.82% [at 7.69 µM] |

biological target: Cytochrome P450 1A2 (Homo sapiens) (UniProt P05177); test: p450-cyp1a2 (AID 410; calls by dose curve; also: potency is read from the fitted curve at half-maximal effect); details: recombinant CYP1A2, luciferin-ME demethylation, luminescence; series mostly up to 57 µM
Sequence of UniProt P05177 (P05177 whole entry, looked up): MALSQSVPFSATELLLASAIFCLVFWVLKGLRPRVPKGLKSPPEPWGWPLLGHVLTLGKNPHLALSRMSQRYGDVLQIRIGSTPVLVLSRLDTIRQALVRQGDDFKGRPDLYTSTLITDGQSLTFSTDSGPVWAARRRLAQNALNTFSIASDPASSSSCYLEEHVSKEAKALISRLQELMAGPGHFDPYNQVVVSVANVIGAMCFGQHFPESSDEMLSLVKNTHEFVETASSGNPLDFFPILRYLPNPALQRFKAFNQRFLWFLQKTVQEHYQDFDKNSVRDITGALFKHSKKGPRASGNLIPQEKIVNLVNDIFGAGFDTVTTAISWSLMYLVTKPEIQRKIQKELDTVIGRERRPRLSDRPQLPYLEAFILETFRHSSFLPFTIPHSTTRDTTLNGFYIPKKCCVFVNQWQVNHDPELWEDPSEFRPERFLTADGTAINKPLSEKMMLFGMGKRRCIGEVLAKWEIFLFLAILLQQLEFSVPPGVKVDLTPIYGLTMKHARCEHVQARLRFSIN
Procedure, shortened: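 Read-out is luminescence from luciferin produced by CYP1A2 demethylation of Luciferin-ME (100uM, at Km). Detection reagent stopped the 60 min NADPH-dependent reaction; signals were normalized to 57 uM furafylline.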

| Compound | Potency |
| --- | --- |
| c1csc(CNc2nc(-c3ccoc3)nc3ccccc23)c1 | active: 0.316 µM |
| CN(C)C(=O)c1ccc(-c2ccc3ncnc(NCCN4CCOCC4)c3c2)cc1 | inconclusive: 25.1 µM [decreasing] |
| COc1ccccc1-c1nc(NCc2cccs2)c2ccccc2n1 | active: 0.631 µM |
| CCNc1ncc2nc(C)c(=O)n(Cc3ccc(F)cc3)c2n1 | active: 1.58 µM |
| Cc1ccccc1-c1cc(NCc2ccccc2)ncn1 | active: 3.98 µM |
| O=c1c(-c2cc(F)cc(F)c2)nc2cncnc2n1-c1ccccc1 | active: 12.6 µM |
| COc1ccccc1CNc1ncncc1-c1cccnc1 | active: 0.794 µM |

system: not listed separately; test: NFAT Signaling Pathway (AID 444); details: Jurkat NFAT-bla M1, carbachol, beta-lactamase ratio, 5 h; at 17.2 µM (top of the series) unless noted;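 also: carbachol stimulus at about its EC50 of 1 µM final; % is scaled to controls: 0 for no effect and ±100 for the full control effect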
Procedure, shortened: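 Read-out: CCF4 FRET ratio (460 nm/530 nm) after 1 h RT dye loading, used for %activity and AC50 from titration series. Cells: Jurkat NFAT-β-lactamase/M1 line, treated with compound plus 1 uM carbachol for 5 h, 37 °C.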

| Compound | activity change, negative = inhibition |
| --- | --- |
| Cc1ccccc1-c1nccc(NCc2cccnc2)n1 | inactive: 3.23% [at 7.69 µM] |
| CN(C)c1ncnc2ccc(-c3cccc(C#N)c3)cc12 | inconclusive: 53.9% [activator] [at 7.69 µM] |
| CN1CCN(c2ncc3nc(-c4cccs4)c(=O)n(CCC#N)c3n2)CC1 | inconclusive: 70.3% [activator] [at 7.69 µM] |
| CCNc1ncc2nc(-c3ccc(Cl)cc3)c(=O)n(Cc3cccs3)c2n1 | inconclusive: 44% [activator] [at 7.69 µM] |
| CN(C)C(=O)c1ccc(-c2ccc3ncnc(N4CCNCC4)c3c2)cc1 | inactive: 4.61% [at 7.69 µM] |
| COc1ccccc1-c1cncnc1NCc1ccccc1 | inactive: -17.9% [at 7.69 µM] |
| COc1ccc(CNc2cc(-c3cccc(C#N)c3)ncn2)c(OC)c1 | inconclusive: 34% [activator] [at 7.69 µM] |
| CCNc1ncc2nc(C)c(=O)n(Cc3ccc(F)cc3)c2n1 | inactive: -0.858% [at 7.69 µM] |
| COc1ccc(Oc2ncc3nc(-c4cc(F)cc(F)c4)c(=O)n(C[C@H]4CCCO4)c3n2)cc1 | inactive: -11.6% [at 7.69 µM] |
| Cc1ccccc1-c1cc(NCc2ccccc2)ncn1 | inactive: -13.3% [at 7.69 µM] |
| CN(C)C(=O)c1ccc(-c2ccc3ncnc(Nc4ccccc4)c3c2)cc1 | inconclusive: 39.9% [activator] [at 7.69 µM] |
| Cc1ccccc1-c1cncnc1NCc1ccccc1 | inconclusive: -30.4% [inhibitor] [at 7.69 µM] |
| Clc1ccccc1-c1nc(NCCN2CCOCC2)c2ccccc2n1 | inactive: -7.69% [at 7.69 µM] |
| CN(Cc1ccco1)c1nc(-c2ccc3c(c2)OCO3)nc2ccccc12 | inconclusive: -38.4% [inhibitor] [at 7.69 µM] |
| CN(Cc1ccco1)c1ncncc1-c1ccc2c(c1)OCO2 | inconclusive: -62% [inhibitor] [at 7.69 µM] |
| CN(Cc1ccco1)c1ccnc(-c2cccnc2)n1 | inactive: -13.4% [at 7.69 µM] |
| CNc1cc(-c2c(C)noc2C)ncn1 | inactive: 3.01% [at 7.69 µM] |
| Cn1cc(-c2nc3cncnc3n(Cc3ccccc3Cl)c2=O)c2ccccc21 | inactive: 3.77% [at 7.69 µM] |
| CNc1ncnc2ccc(-c3cccc(OC)c3)cc12 | inconclusive: 31.4% [activator] [at 7.69 µM] |
| COc1ccc(CNc2ncncc2-c2cccc(NS(C)(=O)=O)c2)c(OC)c1 | inconclusive: 40.4% [activator] [at 7.69 µM] |
